# Measurements reported in the supplement of paper PMC9135407.
# Several values for one entry are separate records, joined by “and”; a condition that tells them apart may be missing. Identical values can stand only once. Counter-ions that a name gives are not always drawn. The whole screen tested about 5,800 compounds, of which about 620 (11%) showed activity.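 How the source made its calls: active = score above a cut-off or among the top three wells of a plate; in these data no inactive exceeds 0.85.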 The list shows a part of the results, in another mix than the full data.
# System: primary human hepatic stellate cells (donor 1)
# Assay: scaled lipid accumulation score (0 = DMSO-like, 1 = nortriptyline-like); higher = stronger HSC inactivation (lipid re-accumulation), active = hit call of the paper
# Settings: 48 h
# [1] = library stock concentration: 10 mM
# [2] = library stock concentration: 1 mM
# [3] = library stock concentration: 3.33 mM
# [4] = library stock concentration: 5.1 mM
# [5] = library stock concentration: 80 uM
# [6] = library stock concentration: 400 uM
# [7] = library stock concentration: 2 mM
compound,measurement,setting,value
"CN(C)C(N)=NCCC[C@H](N)C(=O)O [N^G,N^G-Dimethylarginine hydrochloride]",scaled lipid accumulation score,[1],inactive: ≤ -0.07
CCCCCCCCCCCCCCCCOCC(COP(=O)(O)OCC[N+](C)(C)C)OCC (centres undefined) [2-O-ethyl PAF C-16],scaled lipid accumulation score,[2],inactive: ≤ 0
"CCCCC[C@H](O)CC[C@H]1[C@H](O)CC(=O)[C@@H]1CCCCCCC(=O)O [13,14-Dihydro-PGE1]",scaled lipid accumulation score,[2],inactive: ≤ -0.021
C[C@@H](CN1CCC(Cc2ccccc2)CC1)[C@@H](O)c1ccc(O)cc1 [Ro 25-6981 hydrochloride],scaled lipid accumulation score,[1],inactive: ≤ 0
C[C@@H](CN1CCC(Cc2ccccc2)CC1)[C@@H](O)c1ccc(O)cc1 [Ro 25-6981 maleate],scaled lipid accumulation score,[1],inactive: 0.284
CC1CC(OC(=O)c2ccccc2O)CC(C)(C)C1 (centres undefined) [Homosalate],scaled lipid accumulation score,,inactive: ≤ 0
same,scaled lipid accumulation score,library stock concentration: 7.6 mM,inactive: ≤ 0
CNc1nc(Nc2cn(C(C)(C)C#N)nc2C)ncc1C(F)(F)F,scaled lipid accumulation score,[3],inactive: ≤ -0.009
same,scaled lipid accumulation score,[1],inactive: 0.132
C[C@H](CCC(=O)O)[C@H]1CC[C@H]2[C@@H]3[C@@H](O)C[C@@H]4C[C@H](O)CC[C@]4(C)[C@H]3CC[C@]12C [Urosiol],scaled lipid accumulation score,,inactive: ≤ 0
C[C@H](CCC(=O)O)[C@H]1CC[C@H]2[C@@H]3[C@@H](O)C[C@@H]4C[C@H](O)CC[C@]4(C)[C@H]3CC[C@]12C [Ursodiol],scaled lipid accumulation score,[3],inactive: ≤ 0
same,scaled lipid accumulation score,[4],inactive: ≤ 0
same,scaled lipid accumulation score,[1],inactive: ≤ 0
C#C[C@]1(O)CC[C@H]2[C@@H]3CCC4=CCCC[C@@H]4[C@H]3CC[C@@]21C [Lynestrenol],scaled lipid accumulation score,,inactive: ≤ 0
O=C(Nc1ccncc1)c1cc([N+](=O)[O-])ccc1Cl,scaled lipid accumulation score,[2],inactive: ≤ 0
same,scaled lipid accumulation score,[3],inactive: 0.029
same,scaled lipid accumulation score,[1],inactive: ≤ 0 and inactive: 0.707 and inactive: 0.367
O=C(CCCN1CCN(c2ccccn2)CC1)c1ccc(F)cc1 [Azaperone],scaled lipid accumulation score,,inactive: ≤ 0
same,scaled lipid accumulation score,[3],inactive: ≤ 0
same,scaled lipid accumulation score,library stock concentration: 6.1 mM,inactive: 0.044 and inactive: ≤ 0
same,scaled lipid accumulation score,[1],inactive: 0.095 and inactive: ≤ -0.027
CCCCCCNC(=O)Nc1ccc(S(=O)(=O)Nc2ccc(CCNC[C@H](O)COc3ccc(O)cc3)cc2)cc1,scaled lipid accumulation score,[1],inactive: 0.462
O=C1OC[C@H](Cc2cccc(O)c2)[C@H]1Cc1cccc(O)c1,scaled lipid accumulation score,[2],inactive: ≤ 0
C[C@]12CC[C@@H]3c4ccc(OC(=O)c5ccccc5)cc4CC[C@H]3[C@@H]1CC[C@@H]2O [Estradiol Benzoate],scaled lipid accumulation score,[3],inactive: ≤ 0
same,scaled lipid accumulation score,[1],inactive: 0.155
C[C@]12CC[C@@H]3c4ccc(OC(=O)c5ccccc5)cc4CC[C@H]3[C@@H]1CC[C@@H]2O [Estradiol benzoate],scaled lipid accumulation score,library stock concentration: 5.3 mM,inactive: ≤ 0
CC(C)(C)[N+]([O-])=Cc1ccc(S(=O)(=O)O)cc1S(=O)(=O)O,scaled lipid accumulation score,[3],inactive: 0.034
same,scaled lipid accumulation score,[1],inactive: ≤ 0
CC/C=C\C/C=C\C/C=C\C/C=C\C/C=C\C/C=C\CCC(=O)O[C@H](COCCCCCCCCCCCCCCCC)COP(=O)([O-])OCC[N+](C)(C)C [Docosahexaenoyl PAF C-16],scaled lipid accumulation score,[2],inactive: ≤ 0
O=C(/C=C\n1cnc(-c2cc(C(F)(F)F)cc(C(F)(F)F)c2)n1)N1CC(F)(F)C1,scaled lipid accumulation score,[3],inactive: ≤ -0.009
same,scaled lipid accumulation score,[1],inactive: 0.294
CC(C)OC(=O)C1=CN(C(=O)c2ccc(F)c(F)c2)CC(C)(C)c2c1[nH]c1ccccc21,scaled lipid accumulation score,[3],inactive: ≤ 0
same,scaled lipid accumulation score,[1],inactive: 0.301
COC(=O)[C@@H]1CC2=CC(=O)CC[C@]2(C)[C@@]23O[C@@H]2C[C@@]2(C)[C@@H](CC[C@@]24CCC(=O)O4)[C@H]13 [Eplerenone],scaled lipid accumulation score,[1],inactive: ≤ -0.001
O=C(O)CCC/C=C\C[C@H]1C(=O)C=C[C@@H]1/C=C/[C@@H](O)CCc1ccccc1 [17-phenyl trinor Prostaglandin A2],scaled lipid accumulation score,[2],inactive: ≤ 0
"CC[C@H](CO)Nc1nc(NCc2ccccc2)c2ncn(C(C)C)c2n1 [R-roscovitine, CYC202, Seliciclib]",scaled lipid accumulation score,[5],inactive: 0.025
same,scaled lipid accumulation score,[6],inactive: ≤ 0
same,scaled lipid accumulation score,[7],inactive: 0.08
same,scaled lipid accumulation score,[1],inactive: 0.499
CC[C@H](CO)Nc1nc(NCc2ccccc2)c2ncn(C(C)C)c2n1 [Roscovitine],scaled lipid accumulation score,[3],inactive: ≤ 0
same,scaled lipid accumulation score,[1],inactive: 0.748
Cc1ccc(NC(=O)c2cccc(C(C)(C)C#N)c2)cc1Nc1ccc2ncn(C)c(=O)c2c1,scaled lipid accumulation score,[5],inactive: ≤ 0
same,scaled lipid accumulation score,[6],inactive: ≤ 0
same,scaled lipid accumulation score,[7],inactive: ≤ 0
same,scaled lipid accumulation score,[3],inactive: 0.029
same,scaled lipid accumulation score,[1],inactive: ≤ 0
CC(C)(C)OC(=O)N1CCC(OCc2nc(-c3ccncc3)no2)CC1,scaled lipid accumulation score,[2],inactive: 0.013
CCS(=O)(=O)N1CCC[C@@H]2CN3CCc4cc(OC)ccc4[C@@H]3C[C@@H]21,scaled lipid accumulation score,[1],inactive: ≤ 0
O=C(O)c1ccccc1C(=O)Nc1ccc(S(=O)(=O)Nc2nccs2)cc1 [Phthalylsulfathiazole],scaled lipid accumulation score,,inactive: ≤ 0
same,scaled lipid accumulation score,library stock concentration: 5 mM,inactive: ≤ 0
same,scaled lipid accumulation score,[1],inactive: ≤ 0
CC[C@@H](C)Nc1cc(C(=O)N[C@H]2C[C@H]3CC[C@@H](C2)N3c2ccc(C(=O)C3CC3)cn2)c(C)cc1C(N)=O,scaled lipid accumulation score,[3],inactive: 0.762
CC(C)[C@H](NC(=O)CNC(=O)OC(C)(C)C)C(=O)N[C@H](C=O)C(C)C,scaled lipid accumulation score,library stock concentration: 14 mM,inactive: 0.022
C[N+](C)(C)CC(=O)O [Betaine hydrochloride],scaled lipid accumulation score,[1],inactive: 0.222 and inactive: 0.014
same,scaled lipid accumulation score,library stock concentration: 13 mM,inactive: ≤ 0
Cc1cc(C)c(Nc2ccnc(Nc3ccc(C#N)cc3)n2)c(C)c1 [Dapivirine (TMC120)],scaled lipid accumulation score,[1],active: 1.08
CN(C)CCOc1cc(-c2cn[nH]c2)ccc1NC(=O)C1COc2ccccc2O1 (centres undefined),scaled lipid accumulation score,[1],active: 1.08
CC(C)OC(=O)OCOP(=O)(CO[C@H](C)Cn1cnc2c(N)ncnc21)OCOC(=O)OC(C)C [Tenofovir Disoproxil Fumarate],scaled lipid accumulation score,[3],inactive: ≤ 0
same,scaled lipid accumulation score,[1],inactive: ≤ 0
Cl.O=C(NCCCCN1CCN(c2cccc(Cl)c2Cl)CC1)c1ccc2c(c1)Cc1ccccc1-2,scaled lipid accumulation score,[1],active: 0.884
Nc1cc(Cl)c(NC2=NCCN2)c(Cl)c1 [p-Aminoclonidine hydrochloride],scaled lipid accumulation score,[1],inactive: ≤ 0
Cn1cc(C2=C(c3ccc(Cl)cc3Cl)C(=O)NC2=O)c2ccccc21,scaled lipid accumulation score,[1],active: 1.37
NO [Hydroxylamine hydrochloride],scaled lipid accumulation score,[1],inactive: ≤ -0.07
Cc1cc(C)c(S(=O)(=O)Nc2ccccc2C(F)(F)F)c(C)c1,scaled lipid accumulation score,[1],inactive: 0.002
C(=C\c1ccccc1)/CN1CCN(C(c2ccccc2)c2ccccc2)CC1 [Cinnarazine],scaled lipid accumulation score,library stock concentration: 5.4 mM,inactive: 0.328
same,scaled lipid accumulation score,[1],inactive: 0.423
COc1cc2ncnc(Nc3ccc(F)c(Cl)c3)c2cc1OCCCN1CCOCC1 [Gefitinib (ZD1839)],scaled lipid accumulation score,[1],active: 1.05
"CCCCC/C=C\C=C\CCCCCCCCC(=O)O [10(E),12(Z)-Conjugated Linoleic Acid]",scaled lipid accumulation score,[2],inactive: 0.069
CC(C)[C@H](CO)Nc1nc(Nc2ccc(C(=O)O)c(Cl)c2)c2ncn(C(C)C)c2n1 [Purvalanol B],scaled lipid accumulation score,[1],inactive: ≤ -0.003
CC(C)[C@H](CO)Nc1nc(Nc2ccc(C(=O)O)c(Cl)c2)c2ncn(C(C)C)c2n1 [Purvalanol B (NG95) (0.4 mM)],scaled lipid accumulation score,[6],inactive: ≤ -0.005
CC(C)[C@H](CO)Nc1nc(Nc2ccc(C(=O)O)c(Cl)c2)c2ncn(C(C)C)c2n1 [Purvalanol B (NG95) (10 mM)],scaled lipid accumulation score,[1],inactive: ≤ -0.005
CC(C)[C@H](CO)Nc1nc(Nc2ccc(C(=O)O)c(Cl)c2)c2ncn(C(C)C)c2n1 [Purvalanol B (NG95) (2 mM)],scaled lipid accumulation score,[7],inactive: ≤ -0.005
Nc1nc(Cl)nc2c1ncn2[C@@H]1O[C@H](CO)[C@@H](O)[C@H]1O,scaled lipid accumulation score,[1],inactive: ≤ 0
Nc1nc(Cl)nc2c1ncn2[C@@H]1O[C@H](CO)[C@@H](O)[C@H]1O [2-Chloroadenosine],scaled lipid accumulation score,[1],inactive: 0.819
O=c1c(O[C@@H]2O[C@H](CO)[C@H](O)[C@H](O)[C@H]2O)c(-c2ccc(O)c(O)c2)oc2cc(O)cc(O)c12,scaled lipid accumulation score,library stock concentration: 8.8 mM,inactive: ≤ 0
CCCN(C/C=C/I)C1CCc2cccc(O)c2C1 (centres undefined) [8-Hydroxy-PIPAT oxalate],scaled lipid accumulation score,[1],inactive: 0.221
COc1ccc(-n2c(SCCCN3C(=O)c4cccc5cccc(c45)C3=O)nnc2-c2ccncc2)cc1,scaled lipid accumulation score,[3],inactive: ≤ -0.009
same,scaled lipid accumulation score,[1],inactive: 0.102
CCCCC[C@@H](O)/C=C/[C@@H]1[C@@H](C/C=C\CCCC(=O)O)[C@@H](O)C[C@H]1O [15(R)-Prostaglandin F2.alpha.],scaled lipid accumulation score,[2],inactive: ≤ 0
COc1cc2c(Nc3ccc(NC(=O)c4ccccc4)cc3)ncnc2cc1OCCCN1CCOCC1,scaled lipid accumulation score,[1],active: 1.14
C[C@@H]1C[C@H]2[C@@H]3CCC4=CC(=O)C=C[C@]4(C)[C@@]3(F)[C@@H](O)C[C@]2(C)[C@@]1(O)C(=O)COP(=O)(O)O [Dexamethasone sodium phosphate],scaled lipid accumulation score,[1],inactive: ≤ 0
OCc1ccccc1O[C@@H]1O[C@H](CO)[C@@H](O)[C@H](O)[C@H]1O [Salicin],scaled lipid accumulation score,[3],inactive: ≤ 0
same,scaled lipid accumulation score,library stock concentration: 7 mM,inactive: ≤ 0
same,scaled lipid accumulation score,[1],inactive: ≤ 0
Nc1ncnc2c1nc(Br)n2C1OC2COP(=O)(O)O[C@@H]2C1O (some centres undefined) [8-Bromo-cAMP sodium],scaled lipid accumulation score,[1],inactive: ≤ 0
COc1ccc(NS(=O)(=O)c2ccc(I)cc2)cc1N1CCN(C)CC1,scaled lipid accumulation score,[1],inactive: 0.604
C=CC1=C(C(=O)O)N2C(=O)[C@@H](NC(=O)/C(=N\O)c3csc(N)n3)[C@H]2SC1 [Cefdinir],scaled lipid accumulation score,[4],inactive: ≤ 0
same,scaled lipid accumulation score,[1],inactive: ≤ -0.027
C=CC1=C(C(=O)O)N2C(=O)[C@@H](NC(=O)/C(=N\O)c3csc(N)n3)[C@H]2SC1,scaled lipid accumulation score,[1],inactive: ≤ 0
